Laboratory results: the supplement of paper PMC11741623
This is one part of the list. Interaction screen of human proteins with wild-type SARS-CoV-2 proteins by split-DHFR complementation in yeast, 1 µg/mL methotrexate. Value = fitness of the pair (three or more lineages) minus that of the viral protein without a human partner, on a scale set by negative (0) and fused positive (1) controls, mean of up to three cultures; higher = more likely to interact. Active = false discovery rate below 0.05 (one-sided t-test) in at least one culture. Nearly all pairs are not hits, and differences among them are mostly noise (correlation between cultures about 0.3); most hits were seen in one culture only. Human sequences are the Swiss-Prot entries looked up by gene name; the clone may be another isoform. NSP2 values were corrected by the authors for a growth advantage. Listed are human proteins with a hit and a random twelfth of the others.

B1: PGAP3, Q96FM1 (protein)
chain: MAGLAARLVLLAGAAALASGSQGDREPVYRDCVLQCEEQNCSGGALNHFRSRQPIYMSLAGWTCRDDCKYECMWVTVGLYLQEGHKVPQFHGKWPFSRFLFFQEPASAVASFLNGLASLVMLCRYRTFVPASSPMYHTCVAFAWVSLNAWFWSTVFHTRDTDLTEKMDYFCASTVILHSIYLCCVRTVGLQHPAVVSAFRALLLLMLTVHVSYLSLIRFDYGYNLVANVAIGLVNVVWWLAWCLWNQRRLPHVRKCVVVVLLLQGLSLLELLDFPPLFWVLDAHAIWHISTIPVHVLFFSFLEDDSLYLLKESEDKFKLD
B2: ARMCX1, Q9P291 (protein)
chain: MGRTREAGCVAAGVVIGAGACYCVYRLAWGRDENEKIWDEDEESTDTSEIGVETVKGAKTNAGAGSGAKLQGDSEVKPEVSLGLEDCPGVKEKAHSGSHSGGGLEAKAKALFNTLKEQASAKAGKGARVGTISGNRTLAPSLPCPGGRGGGCHPTRSGSRAGGRASGKSKGKARSKSTRAPATTWPVRRGKFNFPYKIDDILSAPDLQKVLNILERTNDPFIQEVALVTLGNNAAYSFNQNAIRELGGVPIIAKLIKTKDPIIREKTYNALNNLSVNAENQGKIKTYISQVCDDTMVCRLDSAVQMAGLRLLTNMTVTNHYQHLLSYSFPDFFALLFLGNHFTKIQIMKLIINFTENPAMTRELVSCKVPSELISLFNKEWDREILLNILTLFENINDNIKNEGLASSRKEFSRSSLFFLFKESGVCVKKIKALANHNDLVVKVKVLKVLTKL
B3: ARF3, P61204 (protein)
chain: MGNIFGNLLKSLIGKKEMRILMVGLDAAGKTTILYKLKLGEIVTTIPTIGFNVETVEYKNISFTVWDVGGQDKIRPLWRHYFQNTQGLIFVVDSNDRERVNEAREELMRMLAEDELRDAVLLVFANKQDLPNAMNAAEITDKLGLHSLRHRNWYIQATCATSGDGLYEGLDWLANQLKNKK
B4: ACAA2, P42765 (protein)
chain: MALLRGVFVVAAKRTPFGAYGGLLKDFTATDLSEFAAKAALSAGKVSPETVDSVIMGNVLQSSSDAIYLARHVGLRVGIPKETPALTINRLCGSGFQSIVNGCQEICVKEAEVVLCGGTESMSQAPYCVRNVRFGTKLGSDIKLEDSLWVSLTDQHVQLPMAMTAENLAVKHKISREECDKYALQSQQRWKAANDAGYFNDEMAPIEVKTKKGKQTMQVDEHARPQTTLEQLQKLPPVFKKDGTVTAGNASGVADGAGAVIIASEDAVKKHNFTPLARIVGYFVSGCDPSIMGIGPVPAISGALKKAGLSLKDMDLVEVNEAFAPQYLAVERSLDLDISKTNVNGGAIALGHPLGGSGSRITAHLVHELRRRGGKYAVGSACIGGGQGIAVIIQSTA

These binders were tested against SARS-CoV-2 E (assay: yeast fitness gain over the viral ORF with no human partner (scaled fitness); higher = more likely to interact).
Protocol: (§1)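 Split mouse DHFR complementation in pooled diploid yeast: human ORFeome clones carry one fragment and viral ORFs the other; barcoded lineages compete in 1 µg/mL methotrexate and fitness is read by barcode sequencing in up to three cultures.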
For B1, the yeast fitness gain was inactive: -0.346. B2 was tested, and the yeast fitness gain was inactive: 0.0392. With B3 the yeast fitness gain was inactive: 0.0743. In the case of B4, the yeast fitness gain is reported as inactive: -0.00605.

What follows are binders tested against SARS-CoV-2 M in the same assay as above.
Protocol: as §1
For B1, the yeast fitness gain was inactive: -0.032. In the case of B2, the yeast fitness gain is reported as inactive: -0.0124. In the case of B3, the yeast fitness gain is reported as inactive: -0.0201. B4 was tested, and the yeast fitness gain was inactive: 0.0469.

What follows are binders tested against SARS-CoV-2 N in the same assay as above.
Protocol: as §1
B1 was tested, and the yeast fitness gain was inactive: 0.0423. B3 was tested, and the yeast fitness gain was inactive: 0.0715. In the case of B4, the yeast fitness gain is reported as inactive: 0.115.

These binders were tested against SARS-CoV-2 NSP1 in the same assay as above.
Protocol: as §1
With B1 the yeast fitness gain was inactive: -0.147. For B2, the yeast fitness gain was inactive: 0.0315. For B3, the yeast fitness gain was inactive: 0.103. B4 was tested, and the yeast fitness gain was inactive: -0.014.

What follows are binders tested against SARS-CoV-2 NSP10 in the same assay as above.
Protocol: as §1
For B1, the yeast fitness gain was inactive: -0.0482. With B2 the yeast fitness gain was inactive: -0.0728. For B3, the yeast fitness gain was inactive: 0.039. With B4 the yeast fitness gain was inactive: 0.0601.

Each binder was assayed against SARS-CoV-2 NSP12 in the same assay as above.
Protocol: as §1
In the case of B1, the yeast fitness gain is reported as inactive: -0.00209. With B2 the yeast fitness gain was inactive: 0.0792. With B3 the yeast fitness gain was inactive: 0.00162. In the case of B4, the yeast fitness gain is reported as inactive: 0.0666.

Each binder was assayed against SARS-CoV-2 NSP13 in the same assay as above.
Protocol: as §1
B1 was tested, and the yeast fitness gain was inactive: 0.0282. B2 was tested, and the yeast fitness gain was inactive: -0.0122. In the case of B3, the yeast fitness gain is reported as inactive: 0.0021. In the case of B4, the yeast fitness gain is reported as inactive: 0.0666.

Each binder was assayed against SARS-CoV-2 NSP15 in the same assay as above.
Protocol: as §1
With B1 the yeast fitness gain was inactive: 0.0488. In the case of B3, the yeast fitness gain is reported as inactive: -0.163. In the case of B4, the yeast fitness gain is reported as inactive: 0.00964.

The binders below were run against SARS-CoV-2 NSP16 in the same assay as above.
Protocol: as §1
For B1, the yeast fitness gain was inactive: -0.108. With B3 the yeast fitness gain was inactive: 0.0502. For B4, the yeast fitness gain was inactive: -0.0353.

What follows are binders tested against SARS-CoV-2 NSP2 in the same assay as above.
Protocol: as §1
With B1 the yeast fitness gain was inactive: -0.128. For B2, the yeast fitness gain was inactive: -0.205. With B3 the yeast fitness gain was active: 0.207. In the case of B4, the yeast fitness gain is reported as inactive: -0.0608.

These binders were tested against SARS-CoV-2 NSP4 in the same assay as above.
Protocol: as §1
With B1 the yeast fitness gain was inactive: -0.053. In the case of B3, the yeast fitness gain is reported as inactive: -0.118. With B4 the yeast fitness gain was inactive: 0.173.

What follows are binders tested against SARS-CoV-2 NSP5 in the same assay as above.
Protocol: as §1
B1 was tested, and the yeast fitness gain was inactive: -0.0502. In the case of B2, the yeast fitness gain is reported as inactive: -0.0264. With B3 the yeast fitness gain was inactive: 0.0572. With B4 the yeast fitness gain was inactive: 0.00697.

Each binder was assayed against SARS-CoV-2 NSP6 in the same assay as above.
Protocol: as §1
In the case of B1, the yeast fitness gain is reported as inactive: 0.0541. In the case of B2, the yeast fitness gain is reported as inactive: 0.0611. With B3 the yeast fitness gain was inactive: 0.0856. With B4 the yeast fitness gain was inactive: 0.0401.

The binders below were run against SARS-CoV-2 NSP7 in the same assay as above.
Protocol: as §1
B1 was tested, and the yeast fitness gain was inactive: -0.0972. B2 was tested, and the yeast fitness gain was inactive: 0.0892. B3 was tested, and the yeast fitness gain was inactive: 0.0164. B4 was tested, and the yeast fitness gain was inactive: 0.0153.

These binders were tested against SARS-CoV-2 NSP8 in the same assay as above.
Protocol: as §1
For B1, the yeast fitness gain was inactive: 0.0188. With B2 the yeast fitness gain was inactive: -0.00483. In the case of B3, the yeast fitness gain is reported as inactive: -0.0133. For B4, the yeast fitness gain was inactive: 0.0672.

Each binder was assayed against SARS-CoV-2 NSP9 in the same assay as above.
Protocol: as §1
In the case of B1, the yeast fitness gain is reported as inactive: -0.00662. In the case of B2, the yeast fitness gain is reported as inactive: 0.0457. In the case of B3, the yeast fitness gain is reported as inactive: -0.00402. In the case of B4, the yeast fitness gain is reported as inactive: 0.0306.

These binders were tested against SARS-CoV-2 ORF10 in the same assay as above.
Protocol: as §1
B1 was tested, and the yeast fitness gain was inactive: -0.00925. B2 was tested, and the yeast fitness gain was inactive: -0.0295. For B3, the yeast fitness gain was inactive: 0.0244. In the case of B4, the yeast fitness gain is reported as inactive: 0.0656.

What follows are binders tested against SARS-CoV-2 ORF3A in the same assay as above.
Protocol: as §1
In the case of B1, the yeast fitness gain is reported as inactive: 0.0358. For B2, the yeast fitness gain was inactive: 0.0177. With B3 the yeast fitness gain was inactive: 0.0959. With B4 the yeast fitness gain was inactive: 0.0474.

These binders were tested against SARS-CoV-2 ORF3B in the same assay as above.
Protocol: as §1
With B1 the yeast fitness gain was inactive: -0.00322. For B2, the yeast fitness gain was inactive: -0.0728. With B3 the yeast fitness gain was inactive: 0.0124. For B4, the yeast fitness gain was inactive: 0.000666.

The binders below were run against SARS-CoV-2 ORF6 in the same assay as above.
Protocol: as §1
In the case of B1, the yeast fitness gain is reported as inactive: 0.0194. B2 was tested, and the yeast fitness gain was inactive: 0.0343. In the case of B3, the yeast fitness gain is reported as inactive: 0.0164. B4 was tested, and the yeast fitness gain was inactive: 0.0344.

These binders were tested against SARS-CoV-2 ORF7A in the same assay as above.
Protocol: as §1
For B1, the yeast fitness gain was inactive: 0.046. In the case of B3, the yeast fitness gain is reported as inactive: 0.0654. B4 was tested, and the yeast fitness gain was inactive: 0.138.

These binders were tested against SARS-CoV-2 ORF7B in the same assay as above.
Protocol: as §1
B1 was tested, and the yeast fitness gain was inactive: -0.0554. In the case of B2, the yeast fitness gain is reported as inactive: 0.0824. With B3 the yeast fitness gain was inactive: 0.13. For B4, the yeast fitness gain was inactive: 0.0339.

The binders below were run against SARS-CoV-2 ORF8 in the same assay as above.
Protocol: as §1
For B1, the yeast fitness gain was inactive: 0.0161. For B2, the yeast fitness gain was inactive: 0.0831. With B3 the yeast fitness gain was inactive: -0.0549. B4 was tested, and the yeast fitness gain was inactive: -0.0217.

These binders were tested against SARS-CoV-2 ORF9B in the same assay as above.
Protocol: as §1
In the case of B1, the yeast fitness gain is reported as inactive: 0.0359. With B2 the yeast fitness gain was inactive: -0.0159. In the case of B3, the yeast fitness gain is reported as inactive: 0.0653. In the case of B4, the yeast fitness gain is reported as inactive: -0.0225.

The binders below were run against SARS-CoV-2 ORF9Bwu (the 73-codon ORF) in the same assay as above.
Protocol: as §1
B1 was tested, and the yeast fitness gain was inactive: 0.0297. With B2 the yeast fitness gain was inactive: 0.0245. B3 was tested, and the yeast fitness gain was inactive: 0.0441. B4 was tested, and the yeast fitness gain was inactive: -0.00278.

Each binder was assayed against SARS-CoV-2 S in the same assay as above.
Protocol: as §1
In the case of B1, the yeast fitness gain is reported as inactive: 0.0302. With B2 the yeast fitness gain was inactive: -0.00537. With B3 the yeast fitness gain was inactive: -0.0596. With B4 the yeast fitness gain was inactive: 0.0616.

What follows are binders tested against SARS-CoV-2 NSP14 in the same assay as above.
Protocol: as §1
In the case of B3, the yeast fitness gain is reported as inactive: -0.267. B4 was tested, and the yeast fitness gain was inactive: -0.119.
